In PMC4336329 (PLoS ONE, 2015):
The whole screen tested about 310,000 compounds, of which about 14,000 (4.5%) showed an effect of 50% or more. The effect is printed as a negative number. This is one part of the list.

Target: human ether-à-go-go-related gene (hERG) potassium channel (human, UniProt Q12809)
Assay: primary screen, population patch clamp on CHO cells stably expressing hERG
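Further: peak tail current of the secondary pulse compared with the same well before compound.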

Sequence of human ether-à-go-go-related gene (hERG) potassium channel (Q12809 whole entry, looked up): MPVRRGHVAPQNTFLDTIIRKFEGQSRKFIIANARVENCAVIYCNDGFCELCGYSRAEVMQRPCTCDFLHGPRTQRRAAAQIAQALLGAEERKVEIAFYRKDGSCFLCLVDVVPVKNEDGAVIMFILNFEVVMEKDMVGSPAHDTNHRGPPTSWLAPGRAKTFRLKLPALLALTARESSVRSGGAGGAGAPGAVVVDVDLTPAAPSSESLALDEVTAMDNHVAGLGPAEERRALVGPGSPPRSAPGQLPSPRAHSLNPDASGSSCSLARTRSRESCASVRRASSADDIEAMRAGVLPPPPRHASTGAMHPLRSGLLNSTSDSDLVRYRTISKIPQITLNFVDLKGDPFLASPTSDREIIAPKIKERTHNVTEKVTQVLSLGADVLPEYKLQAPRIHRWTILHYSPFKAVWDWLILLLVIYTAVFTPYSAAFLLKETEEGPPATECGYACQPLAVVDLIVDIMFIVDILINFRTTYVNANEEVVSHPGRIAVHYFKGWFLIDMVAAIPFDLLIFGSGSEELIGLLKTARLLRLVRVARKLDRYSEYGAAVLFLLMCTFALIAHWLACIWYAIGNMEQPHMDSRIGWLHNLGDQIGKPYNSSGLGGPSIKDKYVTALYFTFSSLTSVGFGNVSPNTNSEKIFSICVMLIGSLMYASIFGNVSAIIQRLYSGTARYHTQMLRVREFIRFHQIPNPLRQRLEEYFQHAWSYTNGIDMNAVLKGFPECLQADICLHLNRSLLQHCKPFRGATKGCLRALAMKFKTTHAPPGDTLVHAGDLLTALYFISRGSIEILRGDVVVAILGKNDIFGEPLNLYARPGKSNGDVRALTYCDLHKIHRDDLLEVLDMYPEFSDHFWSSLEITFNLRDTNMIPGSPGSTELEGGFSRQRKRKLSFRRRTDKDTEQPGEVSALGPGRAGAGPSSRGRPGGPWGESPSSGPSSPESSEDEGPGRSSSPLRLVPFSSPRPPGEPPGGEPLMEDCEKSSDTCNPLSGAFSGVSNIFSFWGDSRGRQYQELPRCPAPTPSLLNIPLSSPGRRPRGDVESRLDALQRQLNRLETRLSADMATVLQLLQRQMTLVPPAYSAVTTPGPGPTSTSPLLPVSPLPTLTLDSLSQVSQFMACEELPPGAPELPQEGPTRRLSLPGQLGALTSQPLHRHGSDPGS

Question: How did the “hERG current change (%, negative = inhibition) at 10uM” value turn out when `CCOc1ccc(CCNC(=O)CSCC(=O)Nc2ccc(OC)cc2)cc1OCC` was run?
Answer: 11.5%

Question: With `CC(C)Cc1nc(Nc2ccccc2C#N)c2nnn(Cc3ccccc3)c2n1` as the compound, how does the “hERG current change (%, negative = inhibition) at 10uM” value read?
Answer: -13.5%

Question: How did the “hERG current change (%, negative = inhibition) at 10uM” value turn out when `O=C(OCc1ccc(Br)cc1)c1cnc(Cl)c(Cl)c1` was run?
Answer: 25.2%

Question: With `CC(OC(=O)c1ncc(Cl)c(Cl)c1Cl)C(=O)NC1CCCCC1C` (stereo not drawn) as the compound, how does the “hERG current change (%, negative = inhibition) at 10uM” value read?
Answer: 7.43%

Question: For `Cl.OCCCCNCc1ccc(OCc2ccc(Cl)cc2Cl)cc1`, which “hERG current change (%, negative = inhibition) at 10uM” value is on record?
Answer: -51.6%

Question: `O=C(Nc1ccccc1)Nc1nnc(COc2ccccc2F)s1` was tested. Which “hERG current change (%, negative = inhibition) at 10uM” value did it give?
Answer: 1.23%

Question: With `O=C(Nc1ccc(Cl)c(S(=O)(=O)N2CCCCC2)c1)C1=COCCO1` as the compound, how does the “hERG current change (%, negative = inhibition) at 10uM” value read?
Answer: -39.6%

Question: For `COc1ccccc1N1CCN(C(=O)c2c(C)cc(=O)oc2C)CC1`, which “hERG current change (%, negative = inhibition) at 10uM” value is on record?
Answer: 19.1%

Question: With `Cc1cc(C)c(C(=O)CSc2nnc(C)s2)c(C)c1` as the compound, how does the “hERG current change (%, negative = inhibition) at 10uM” value read?
Answer: 18.2%

Question: With `CC1(C)CC(C(=O)Nc2nccs2)CCO1` (stereo not drawn) as the compound, how does the “hERG current change (%, negative = inhibition) at 10uM” value read?
Answer: 3.2%

Question: How did the “hERG current change (%, negative = inhibition) at 10uM” value turn out when `CSCC(C)N1CCC(n2nccc2NC(=O)CCOc2ccccc2)CC1` (stereo not drawn) was run?
Answer: -15.7%

Question: For `O=C1NCC(c2ccccc2)C1C(=O)N/N=C/c1ccc(Cl)s1` (stereo not drawn), which “hERG current change (%, negative = inhibition) at 10uM” value is on record?
Answer: 13.4%

Question: `CCOC(=O)C(=O)Nc1nnc(CCc2ccccc2)s1` was tested. Which “hERG current change (%, negative = inhibition) at 10uM” value did it give?
Answer: 6.37%

Question: With `O=C(O)CP(=O)(c1ccccc1)c1ccccc1` as the compound, how does the “hERG current change (%, negative = inhibition) at 10uM” value read?
Answer: 11.9%

Question: `CCOc1ccc(OCC)c(NC(=O)CSc2nnc(-c3cccnc3)o2)c1` was tested. Which “hERG current change (%, negative = inhibition) at 10uM” value did it give?
Answer: -27.3%

Question: With `COc1ccccc1CNC(=O)CCN1C(=O)COc2ccc(C)cc21` as the compound, how does the “hERG current change (%, negative = inhibition) at 10uM” value read?
Answer: 9.51%

Question: How did the “hERG current change (%, negative = inhibition) at 10uM” value turn out when `O=C(CN1C(=O)NC2(CCCC2)C1=O)NCC1CCCO1` (stereo not drawn) was run?
Answer: 9.06%

Question: With `Cc1ccc(S(=O)(=O)Nc2ccc(SC(F)F)cc2)c(C)c1` as the compound, how does the “hERG current change (%, negative = inhibition) at 10uM” value read?
Answer: 10.3%

Question: Which “hERG current change (%, negative = inhibition) at 10uM” value does the source give for `O=C(c1ccc(F)cc1)N1CCC(C(=O)N2CCN(S(=O)(=O)c3ccccc3Br)CC2)CC1` here?
Answer: -32.6%

Question: How did the “hERG current change (%, negative = inhibition) at 10uM” value turn out when `Cc1cc(C)c(S(C)(=O)=O)c(NN)n1` was run?
Answer: 21.2%

Question: Which “hERG current change (%, negative = inhibition) at 10uM” value does the source give for `COC(=O)c1scc(C)c1NC(=O)c1ccc(Cl)cc1` here?
Answer: -43.1%

Question: `COc1ccc(CCNC(=O)Nc2cccc([N+](=O)[O-])c2)cc1OC` was tested. Which “hERG current change (%, negative = inhibition) at 10uM” value did it give?
Answer: -14.4%

Question: `COc1cc2c(cc1OC)C(C)N(C(=O)C1=NN(c3cccc(C)c3)C(=O)CC1)CC2` (stereo not drawn) was tested. Which “hERG current change (%, negative = inhibition) at 10uM” value did it give?
Answer: 1.19%

Question: For `O=C(Cn1c(=O)oc2ccc(Cl)cc21)NC1CCCCC1`, which “hERG current change (%, negative = inhibition) at 10uM” value is on record?
Answer: 24.9%

Question: For `Cc1ccc(C(=O)Nc2ccc(S(=O)(=O)N3CCOCC3)cc2)cc1C`, which “hERG current change (%, negative = inhibition) at 10uM” value is on record?
Answer: 13.1%

Question: How did the “hERG current change (%, negative = inhibition) at 10uM” value turn out when `CCOC(=O)C1(CC2CC2)CCN(Cc2cnc(-c3ccc(OC)cc3)nc2)CC1` was run?
Answer: -21.9%

Question: For `Cc1cccc(-n2c(SCC(=O)Nc3ncc(Cl)cc3Cl)nc3ccccc32)c1`, which “hERG current change (%, negative = inhibition) at 10uM” value is on record?
Answer: 15%

Question: `O=C1Nc2cc(Cl)ccc2Nc2cscc21` was tested. Which “hERG current change (%, negative = inhibition) at 10uM” value did it give?
Answer: -0.0955%

Question: Which “hERG current change (%, negative = inhibition) at 10uM” value does the source give for `CC1=NN(C(=O)c2ccccc2)C(O)(c2ccc(Br)cc2)C1` (stereo not drawn) here?
Answer: 17.4%

Question: For `CC(=O)c1cccc(CN2CCCC(CCC(=O)NCc3ccc(F)c(F)c3)C2)c1` (stereo not drawn), which “hERG current change (%, negative = inhibition) at 10uM” value is on record?
Answer: -74.7%

Question: For `CCOC(=O)CSc1nc2c(c(=O)n(Cc3ccccc3Cl)c(=O)n2C)n1C`, which “hERG current change (%, negative = inhibition) at 10uM” value is on record?
Answer: -36.2%

Question: With `CC(C)c1ccc(CNNC(=O)c2ccccc2)cc1` as the compound, how does the “hERG current change (%, negative = inhibition) at 10uM” value read?
Answer: -0.864%

Question: `CCOC(=O)N1CCN(Cc2nc(N)nc(Nc3ccc(Oc4ccccc4)cc3)n2)CC1` was tested. Which “hERG current change (%, negative = inhibition) at 10uM” value did it give?
Answer: -70.7%

Question: For `CCc1nn(CC(=O)NCCC(C)C)c(=O)c2cc3c(OC)cccc3n12`, which “hERG current change (%, negative = inhibition) at 10uM” value is on record?
Answer: 10%

Question: How did the “hERG current change (%, negative = inhibition) at 10uM” value turn out when `COc1cccc(S(=O)(=O)Nc2noc3ccccc23)c1` was run?
Answer: 17%

Question: How did the “hERG current change (%, negative = inhibition) at 10uM” value turn out when `O=c1[nH]ncn1-c1ccc(Br)cc1` was run?
Answer: 12.1%

Question: Which “hERG current change (%, negative = inhibition) at 10uM” value does the source give for `COc1ccc(N2CCN(C(=O)Cc3ccc(Cl)cc3)CC2)cc1` here?
Answer: -37.5%

Question: For `CCOc1ccccc1NC(=O)c1ccc2c(c1)C(=O)N(CC1CCCO1)C2=O` (stereo not drawn), which “hERG current change (%, negative = inhibition) at 10uM” value is on record?
Answer: 7.1%

Question: Which “hERG current change (%, negative = inhibition) at 10uM” value does the source give for `Cc1ccc(-n2nc(C)cc2N)c(C)c1.Cl` here?
Answer: 10.4%

Question: `Cc1nc(C(=O)NNC(=O)c2ccccc2Cl)c(C(F)(F)F)o1` was tested. Which “hERG current change (%, negative = inhibition) at 10uM” value did it give?
Answer: 13.3%

Question: With `O=c1c2ccccc2n2cnnc2n1-c1ccccc1` as the compound, how does the “hERG current change (%, negative = inhibition) at 10uM” value read?
Answer: 10.1%

Question: Which “hERG current change (%, negative = inhibition) at 10uM” value does the source give for `NS(=O)(=O)c1ccc(N/C=C/C(=O)c2ccc(Br)cc2)cc1` here?
Answer: 11.3%

Question: `Cc1nc(SCC(=O)N2CCc3ccccc32)n[nH]1` was tested. Which “hERG current change (%, negative = inhibition) at 10uM” value did it give?
Answer: 11%

Question: `CCCCOC(=O)Nc1ccccc1C(=O)OC` was tested. Which “hERG current change (%, negative = inhibition) at 10uM” value did it give?
Answer: 0.924%

Question: For `COc1ccc(-c2cc(=O)oc3cc(O)ccc23)cc1`, which “hERG current change (%, negative = inhibition) at 10uM” value is on record?
Answer: 16.1%

Question: For `CC(C)Cc1ccc(-c2cc(=O)[nH][nH]2)cc1`, which “hERG current change (%, negative = inhibition) at 10uM” value is on record?
Answer: 2.57%

Question: With `COc1ccc(CNC(=O)CSCc2cccc(Cl)c2)cc1` as the compound, how does the “hERG current change (%, negative = inhibition) at 10uM” value read?
Answer: -16.4%

Question: With `COc1cc(NC(=O)CCNS(=O)(=O)c2ccc3c(c2)CCC(=O)N3)cc(OC)c1` as the compound, how does the “hERG current change (%, negative = inhibition) at 10uM” value read?
Answer: 14.6%

Question: Which “hERG current change (%, negative = inhibition) at 10uM” value does the source give for `COC(=O)NNC(=O)COc1ccc(Cl)cc1` here?
Answer: -10.3%

Question: For `Cc1nn(C)c(C)c1Sc1ccccc1N`, which “hERG current change (%, negative = inhibition) at 10uM” value is on record?
Answer: 13.5%

Question: `COc1ccc(C(=O)CSc2n[nH]c(=O)[nH]c2=O)cc1` was tested. Which “hERG current change (%, negative = inhibition) at 10uM” value did it give?
Answer: 14.9%

Question: `O=C(Cc1ccc(Br)cc1)NNC(=O)Nc1ccc(Cl)cc1` was tested. Which “hERG current change (%, negative = inhibition) at 10uM” value did it give?
Answer: 16.4%

Question: With `O=C(NNC(=O)c1ccc2ccccc2c1O)c1cccs1` as the compound, how does the “hERG current change (%, negative = inhibition) at 10uM” value read?
Answer: 11.3%

Question: `COc1ccc(CC2(CO)CCN(Cc3cnn(-c4ccccc4OC)c3)CC2)cc1` was tested. Which “hERG current change (%, negative = inhibition) at 10uM” value did it give?
Answer: -64.8%

Question: How did the “hERG current change (%, negative = inhibition) at 10uM” value turn out when `COc1cccc(-n2nc(C(C)=O)c(=O)[nH]c2=O)c1` was run?
Answer: 3.8%

Question: `CN(CC(=O)Nc1ccc(Cl)c(C(F)(F)F)c1)C(=O)C1CC(=O)N(Cc2ccco2)C1` (stereo not drawn) was tested. Which “hERG current change (%, negative = inhibition) at 10uM” value did it give?
Answer: -20.1%

Question: How did the “hERG current change (%, negative = inhibition) at 10uM” value turn out when `O=C(NCc1ccccc1)c1ccc(S(=O)(=O)N2CCCC2)cc1` was run?
Answer: -6.97%

Question: With `CC(=O)Nc1nonc1-c1nc2ccccc2n1CCC#N` as the compound, how does the “hERG current change (%, negative = inhibition) at 10uM” value read?
Answer: 4.73%

Question: Which “hERG current change (%, negative = inhibition) at 10uM” value does the source give for `COc1ccc2o/c(=N\O)c(C(=O)Nc3ccccc3OC)cc2c1` here?
Answer: 21.1%

Question: With `CCOC(=O)N1CCC(N2CCCC(C(=O)c3ccc4cc(OC)ccc4c3)C2)CC1` (stereo not drawn) as the compound, how does the “hERG current change (%, negative = inhibition) at 10uM” value read?
Answer: -74.3%
